Test results from publication PMC6919601, “Identification of Plasmodium dipeptidyl aminopeptidase allosteric inhibitors by high throughput screening” (PLoS ONE, 2019).
Values joined by “and” are separate entries in the source; they are usually repeats but may differ in a detail not shown here. Identical values can stand only once. Out of some 110,000 compounds screened, about 230 (0.21%) showed an effect of 50% or more. The list shows a part of the results.

biological target: DPAP1 (Plasmodium falciparum, UniProt Q8IIJ9); test: primary screen, percent inhibition; read by cleavage of a fluorogenic dipeptide substrate; higher = more effect of the substance; set-up: species or system P. falciparum D10 trophozoite lysates; single well
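Also: 30 min substrate incubation versus DMSO and 10 µM JCP410 controls.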

Sequence of DPAP1 (Q8IIJ9 whole entry, looked up): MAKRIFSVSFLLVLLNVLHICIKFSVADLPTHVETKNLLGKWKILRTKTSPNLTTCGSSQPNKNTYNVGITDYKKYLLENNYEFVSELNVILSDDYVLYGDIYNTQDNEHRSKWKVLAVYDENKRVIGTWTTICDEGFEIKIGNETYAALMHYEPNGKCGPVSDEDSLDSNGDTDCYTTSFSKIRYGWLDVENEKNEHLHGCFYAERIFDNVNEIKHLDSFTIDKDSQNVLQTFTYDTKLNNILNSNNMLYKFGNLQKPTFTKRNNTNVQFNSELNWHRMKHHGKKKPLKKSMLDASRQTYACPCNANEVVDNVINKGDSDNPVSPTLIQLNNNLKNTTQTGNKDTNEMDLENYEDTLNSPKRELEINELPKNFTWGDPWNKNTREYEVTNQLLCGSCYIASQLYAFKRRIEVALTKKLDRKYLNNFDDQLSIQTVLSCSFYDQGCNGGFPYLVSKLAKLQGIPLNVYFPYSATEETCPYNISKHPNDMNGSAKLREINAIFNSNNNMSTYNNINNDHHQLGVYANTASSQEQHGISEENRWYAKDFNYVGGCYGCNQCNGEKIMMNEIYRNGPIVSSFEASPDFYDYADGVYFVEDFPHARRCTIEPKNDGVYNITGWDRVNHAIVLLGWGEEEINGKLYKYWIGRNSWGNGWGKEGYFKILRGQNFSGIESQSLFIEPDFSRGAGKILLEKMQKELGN

SMILES | % Inhibition @ 10 uM
O=C(NCCc1ccccc1)C(=O)Nc1ccc(Cl)c(Cl)c1 | -7.87%
Clc1cccc(NCn2cnc3ccccc32)c1 | 8.06%
CCCn1c2ccccc2c2cc(OC)ccc21 | -5.03%
CCn1c(C)c(C)c2cc(C(=O)NCCN3CCOCC3)ccc21 | -5.28%
CCC(C)(C)/N=c1/c(-c2ccc(C)c(C)c2)c(O)c1=O | -1.98%
CCCN(CCC)CCNC(=O)CNC(=S)N1CC2CC(C1)c1cccc(=O)n1C2 (stereo not shown) | 2.79%
CCOc1cc(/C=C2\SC(=O)N(CC)C2=O)cc(Br)c1O | -7.1%
CCc1ccccc1OCCSc1nc(-c2ccc(OC)cc2)nc2cc(=O)[nH]n12 | 4.13%
COC(=O)c1ccc(CN2CCc3ccccc3C2)cc1 | 3.48%
COc1ccc(CNC(=O)CCS(=O)(=O)c2ccc3nc(C)sc3c2)cc1 | -1.97%
COc1ccc(Cn2c(-c3nonc3NC(C)=O)nc3ccccc32)cc1 | 5.2%
CCC(=O)N1N=C2C3CCN(CC3)C2C1c1ccc(OC)cc1 (stereo not shown) | -4.24%
CCOC(=O)/C(C#N)=C/c1c(Oc2ccc(C)cc2)nc2ccccn2c1=O | -1.86%
N=C1/C(=C\c2ccc(Cl)cc2)C(=O)N=C2SC(N3CCCC3)=NN12 | -7.18%
COc1ccc(C2/C(=C(\O)OC3CCCCC3)C(C)=Nc3nnnn32)cc1Br (stereo not shown) | -0.326%
Clc1ccc(OCc2nnc(-c3ccccc3)o2)cc1 | 5.29%
COc1ccc(C(=O)C2=C(O)C(=O)N(CCN3CCOCC3)C2c2cccs2)cc1OC (stereo not shown) | -0.62%
O=C1CC(N2CCN(Cc3ccc4c(c3)OCO4)CC2)C(=O)N1c1cccc2ccccc12 (stereo not shown) | -1.17%
Brc1cc2c(cc1Cn1c(-c3cncs3)nc3ccccc31)OCO2 | 1.51%
CCOc1cc(C2CC(=O)NC3=C2C(=O)CC(C)(C)C3)ccc1OC(C)C (stereo not shown) | -3.51%
CC(=O)C(C(C)=O)=C(N)N1CCN(c2ccc(F)cc2)CC1 | -3.9%
Nc1nncn1C(=O)c1ccc2c(c1)OCO2 | -5.85%
Cc1cc(C)c2c(=O)c3c(oc2c1)C(=O)N(CCCOC(C)C)C3c1ccc(Cl)cc1 (stereo not shown) | 4.83%
CCOC(=O)c1c(NC(=O)Cn2nnc3sc4c(c3c2=O)CCC(C)C4)sc2c1CCCC2 (stereo not shown) | 0.561%
Cc1c(C)n(Cc2ccccc2)c2ccc(C(=O)N3CCSCC3)cc12 | 0.431%

SMILES | % Inhibition @ 10 uM
CC(C)c1ccc(OCC(=O)Nc2nccs2)cc1 | 8.26%
CCOc1ccc(C2C3=C(O)CC(C)(C)CC3=NC3=C2C(=O)CC(C)(C)C3)cc1OCC (stereo not shown) | -2.56%
COc1ccc2c(c1)c1c(c(=O)n(CCc3ccccc3)c(=O)n1CC(=O)NCC1CCCO1)n2C (stereo not shown) | -0.401%
O=C(Nc1cccc2ccccc12)C(=O)NC1CCCCC1 | -8.01%
CCN(CC)c1nc(C)nc2sc(C(=O)N3CCCCCC3)c(C)c12 | -7.66%
CCc1nn(CC(=O)NCc2cccc(Cl)c2)c(=O)c2cccn12 | -0.542%
COc1ccc(C(=O)c2oc3ccccc3c2NC(=O)c2ccco2)cc1 | 0.487%
CCOC(=O)c1c(C)n(-c2ccccc2)c2ccc(NS(=O)(=O)c3ccccc3)cc12 | 1.8%
COc1cccc(-c2cc(C(=O)O)c3c(-c4ccc(F)cc4)[nH]nc3n2)c1O | 1.02%
Cc1nc2nncn2c(NCCc2ccccc2)c1C | -8.25%
Cc1cccc(C(=O)NCCCn2ccnc2)c1 | -1.81%
CCN(CC)CCn1c(/C=C/c2ccc(Cl)cc2)nc2cc3ccccc3cc2c1=O | -0.736%
Cc1nc2c(c(C)c1CCC(=O)NC(C)c1ccccc1)c(=O)n(C)c(=O)n2C (stereo not shown) | 3.75%
COc1ccccc1-c1nnc(SCC(=O)N2CC(C)CC(C)C2)o1 (stereo not shown) | 0.166%
CC(C(=O)NCCc1cccc2ccccc12)N1C(=O)c2ccccc2C1=O (stereo not shown) | 14.1%
Cc1ccccc1Cn1c(=O)c2c(nc3n2CCN3Cc2ccco2)n(C)c1=O | -1.69%
C=CCN1C(=O)N/C(=C/c2ccc(N3CCOCC3)cc2)C1=O | 4.11%
CC1(C)CC(=O)C(/C=N/c2ncccc2C(=O)O)=C(O)C1 | -0.99% and -1.81%
CCC1(CC)C(=O)N=C(NCc2ccc(OC)cc2)N(C)C1=O | 6.48%
CC(NC(=O)Cn1c2ccccc2c2cnnc(O)c21)c1ccccc1 (stereo not shown) | 1.38%
CCCCN(C)C(=O)c1ccc(CS(=O)(=O)Cc2cccc(C)c2)o1 | -1.79%
N#Cc1c(N)c(C(=O)c2ccccc2)n2c1CCCC2 | 2.01%
COc1cc(C2Nc3ccccc3C(=O)N2Cc2ccco2)cc(OC)c1OC (stereo not shown) | -8.6%
OC(C#CC(O)(c1ccccc1)c1ccccc1)c1ccccc1F (stereo not shown) | -1.86%
CCOC(=O)c1sc2nc3c(cc2c1N)CCCC3 | 0.847%

SMILES | % Inhibition @ 10 uM
COC(=O)c1c(NC(=O)c2ccc(F)cc2)sc(Cc2ccccc2)c1C | 2.03%
CC(CC(NC(=O)OCc1ccccc1)C(=O)NCC#N)c1cccc2ccccc12 (stereo not shown) | 1.35%
CC1(C)CC2CC(C)(CN2Cc2cccnc2)C1 (stereo not shown) | 0.273%
CCN(CC)c1ccc(/C=C2/C(=O)N(c3ccccc3)C(=S)N(c3ccccc3OC)C2=O)cc1 | 1.13%
CCOC(=O)/C(C#N)=C\c1ccccn1 | 4.57%
O=C(/N=c1\scc(-c2ccc(Br)cc2)n1CCO)c1ccccc1 | 5.73%
CCc1ccc(Oc2nc3ccccn3c(=O)c2/C=C(\C#N)C(=O)NCC2CCCO2)cc1 (stereo not shown) | -1.86%
CCC(=O)N1CCN(c2cc(N3CCCC3)c(F)cc2[N+](=O)[O-])CC1 | 4.26%
N#CC1=C(N)SC(N)=C(C#N)C1c1ccco1 | 51.4%
COc1cccc(S(=O)(=O)Nc2ccc(C(=O)N3CC(C)CC(C)C3)cc2)c1 (stereo not shown) | -6.65%
Cn1c2ccccc2c2cnn(CC(=O)NCc3ccccc3Cl)c(=O)c21 | -5.49%
CCCN(Cc1ccc([N+](=O)[O-])s1)CC1CC1 | -5.42%
CN1C(=O)C2(C(C#N)=C(N)N(c3cc(Cl)cc(Cl)c3)C3=C2C(=O)CC(C)(C)C3)c2ccccc21 (stereo not shown) | -1.06%
COc1ccc(-c2noc(N3CCN(C4CCCCC4)CC3)n2)cc1 | 5.09%
CC1CCCCN1S(=O)(=O)c1ccc(-n2cnnn2)cc1 (stereo not shown) | 6.92%
Cc1ccc(NC(=O)CN2C(=O)S/C(=C\c3c(C)[nH]c4ccccc34)C2=O)cc1 | -1.92%
CCc1cc(O)nc(N2CCCCC2)n1 | 4.07%
Cn1c(=O)c2c(nc(Cl)n2CC(=O)NCc2ccccc2)n(C)c1=O | 1.01%
COCCNS(=O)(=O)c1ccc(-c2ccc(O)nn2)o1 | 6.34%
CCOC(=O)c1sc(NC(=O)COc2ccccc2C(C)(C)C)nc1C | -3.21%
Cc1ccc2nc(C(=O)O)cc(C(=O)O)c2c1 | 6.31%
CC(C)C[C@H](NC(=O)c1ccc(Br)s1)C(=O)NCC#N | -4.72%
CC(C)(C)NC(=O)C1CC(c2ccccc2F)=NO1 (stereo not shown) | -0.644%
Cn1cc(Br)c(C(=O)Nc2ccc(C3CCCCC3)cc2)n1 | -0.216%
Cc1ccnc(NC(=O)c2ccc(COc3ccc(Cl)cc3)o2)c1 | 0.512%

SMILES | % Inhibition @ 10 uM
Oc1nc2ccc(Br)cc2c(F)c1-c1ccccc1 | 0.895%
Oc1c2c(nc3c(-c4ccc(Cl)cc4)c(Cc4ccccc4)nn13)CCC2 | 13.3%
O=C(O)CN1C(=O)C2C3CC(C2C1=O)C1C(c2cccs2)c2sc(O)nc2SC31 (stereo not shown) | -1.74%
CCC1=C(c2ccc(C)cc2)S(=O)(=O)N=C1N1CCC(C(=O)NCCCN2CCCCC2)CC1 | -2.11%
O=C(Cc1ccccc1)Nc1ccc2oc(-c3ccc(F)cc3)nc2c1 | -1.79%
CCOC(=O)c1c(CC(C)C)csc1/N=C/C1C(=O)c2ccccc2C1=O | -5.01%
Cc1cccc(C(=O)NC(C)c2ccccc2)c1 (stereo not shown) | 0.467%
C=CCN(CC=C)C(=O)COc1ccc(Cl)cc1Cl | 2.42%
Cc1ccc(S(=O)(=O)N(CC(=O)N2CCN(c3ccccc3)CC2)Cc2ccccc2)cc1 | -4.13%
Cc1cccc(COC(=O)N[C@@H](CC(C)C)C(=O)NCC#N)c1 | -3.04%
O=C(O)/C=C\C(=O)Nc1cccc(Cl)c1Cl | -3.72%
COc1ccc(Nc2ncnc3c2oc2ccccc23)cc1 | 4.12%
Fc1ccc(N2CCN(Cc3ccco3)CC2)cc1 | 7.55%
CCn1c(SCC(=O)Nc2cc(C)on2)nc2c(c1=O)SCC2 | 2.54%
Cc1oc(-c2ccc(C(=O)NCCC(C)C)cc2)nc1CS(=O)c1ccccc1 (stereo not shown) | -5.92%
OCC1CCCCN1CCc1ccccc1 (stereo not shown) | -2.95%
CC(=O)Nc1ccc(NC(=O)c2cc([N+](=O)[O-])ccc2Cl)cc1 | 3.1%
CC(C)Oc1ccc(CNC(=O)Cn2sc3ccccc3c2=O)cc1 | -0.856%
COCCn1c(=N)c(C#N)cc2c(=O)n3cc(C)ccc3nc21 | -1.47%
CCCC1=NN(c2nc3ccccc3s2)C(=O)/C1=C/N(C)C | 1.01%
CCSc1nnc(NC(=O)c2cnc(SC)nc2C)s1 | -4.08%
CCOc1ccc2nc(NC(=O)c3ccccc3C)sc2c1 | -3.45%
COc1ccc(CN2CCN(Cc3ccc(SC)cc3)CC2)c(OC)c1 | -2.87%
CC(C)CC(C(=O)NCCCOC(C)C)N1Cc2ccccc2C1=O (stereo not shown) | 6.98%
O=C1CN(c2ccc(Br)cc2)C(=O)N1 | -6.08%
